In patent US8022188B2, “Immunosuppressant binding antibodies and methods of obtaining and using same” (Abbott Laboratories, priority 2006, dated 2011):

Experiment: Equilibrium dissociation constant of 29-56-14 scFv expressed on yeast cells
Format: binding
Details: read-out: KD for bt-CsA
Method: Equilibrium dissociation constant (KD) for bt-CsA antigen was determined in a physiological diluent (composed of PBS, pH 7.4 and 1% BSA). Yeast clones induced for scFv expression were mixed with various concentrations of bt-CsA and allowed to reach equilibrium (4-18 hrs) in either (a) a physiological diluent (composed of PBS, pH 7.4 and 1% BSA); and (b) a selection diluent (composed of PBS, 1% BSA and 10% methanol), chilled on ice, washed, and labeled for flow cytometric measurement. The antibody-normalized, antigen-binding mean fluorescence intensity was plotted against antigen concentration and a non-linear least squares fit (y=m1+m2*m0/(m3+m0)) was used to determine KD. […] The KD value for bt-CsA was used for screening of mutagenic libraries in the presence of excess competitor.

B1: WT CsA 29-56-14 scFv: unmutated scFv from anti-CsA 29-56-14 mouse hybridoma (Novartis), displayed on yeast (antibody, V domains shown)
VH: EVQLQQSGPDLVKPGASMKISCKASGYSFTSYTLNWVRQSPGKNLEWIGLIYPYNGGTNYNQKFNDKATFTVDKSSSTAYMELLSLTSEDSAVYYCARVGYYGTTPYYAMDYWGQGTSVTVSS
VL: DIVLTQSPASLAVSLGQRATISCRASKSVDYYGISFMNWFQQKPGQPPKLLIYAASSQGSGVPARFSGSGSGTDFSLSIHPMEEDDTAMYFCQHSKEVPWTFGGGTNLEIKRA
modifications: scFv linker missing; Mouse; CDS (1)..(369); CDS (1)..(339)
- Kd (physiological diluent (PBS pH 7.4, 1% BSA)): 0.56 nM
- Kd (selection diluent (PBS, 1% BSA, 10% methanol)): 2 nM

Read-outs that look alike come from different tables or passages of the source.
